Reference: PubChem BioAssay AID588855 (National Center for Advancing Translational Sciences (NCATS), 2011)
The whole screen tested about 410,000 compounds, of which about 5,000 (1.2%) were called active. This list was built around the results that the source calls inconclusive (neither active nor inactive); the mix of calls is not that of the screen. Calls follow the shape of the dose curve; as a rule, active = well fitted inhibition curve with a large enough effect; inconclusive = small, poorly fitted or top-dose-only effect; inactive = no such curve, though single readings can be large or run the other way. Potencies of inconclusive entries are doubtful fits and often do not repeat.
Potency is read from the fitted curve at half-maximal effect; tags tell the direction and shape of the fitted curve.

Assay: qHTS for Inhibitors of TGF-b; also: nearly all actives have a fitted effect of over 65% in size
Details: HepG2 CAGA-GFP TGF-b/SMAD3 reporter, GFP fluorescence, 18 h, TGF-beta stimulated, 500 pg/mL final; series mostly up to 46.1 µM
Method in brief: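 Using HEPG2 CAGA-GFP reporter cells at 1000 cells/well, we pinned test compounds, stimulated with recombinant TGF-beta (500 pg/mL final) and measured total well GFP after 18 h.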
In the case of `CCOC(=O)c1c(NC(=O)Nc2ccc(C)cc2)sc2c1CCN(C)C2`, the Potency is reported as “inactive”.
For `Cc1ccccc1/C=N\NC(=O)c1ccccc1-n1cccc1`, the Potency was “inactive”.
In the case of `COC(=O)C1C2CCCCC1C(=O)O2` (stereo not drawn), the Potency is reported as inconclusive: 6.31 µM [inhibitor, single point].
With `CCCCN1C2CCCC1CC(NC(=O)c1cccc(OC)c1)C2` (stereo not drawn) the Potency was “inactive”.
For `O=C1CC(c2ccc3c(c2)OCCO3)Oc2ccc([N+](=O)[O-])cc21` (stereo not drawn), the Potency was inconclusive: 31.6 µM [inhibitor, single point].
In the case of `O=C1OCCC1Sc1nnc(-c2ccc(Cl)cc2Cl)o1` (stereo not drawn), the Potency is reported as inconclusive: 35.5 µM [inhibitor, single point].
For `O=C(Nc1ccccc1)C1=C[C@@H](c2ccc3c(c2)OCO3)C[C@@H](OCCCCO)O1`, the Potency was inconclusive: 10 µM [inhibitor, partial curve, poor fit].
For `O=C(Nc1ccc2[nH]ncc2c1)c1ccccc1Cl`, the Potency was “inactive”.
With `CC(NC(=S)NNS(=O)(=O)c1ccc(C(C)(C)C)cc1)c1ccccc1` (stereo not drawn) the Potency was inconclusive: 35.5 µM [inhibitor, single point].
For `COc1cc(NC(=O)c2ccc(-c3nc(COc4ccccc4)c(C)o3)cc2)cc(OC)c1`, the Potency was inconclusive: 5.01 µM [inhibitor, full curve].
For `Cc1cc(C(=O)Cn2nc(C(=O)O)c3ccccc3c2=O)c(C)n1C1CC1`, the Potency was “inactive”.
In the case of `COc1ccc(-c2oc(=O)c3cc(OC)c(OC)cc3c2C#C[C@]2(O)CC[C@H]3[C@@H]4CCc5cc(OC)ccc5[C@H]4CC[C@@]32C)cc1`, the Potency is reported as “inactive”.
With `CCC12CN3CC(C)(CN(C1)C3c1ccccc1C)C2=O` (stereo not drawn) the Potency was “inactive”.
In the case of `Cc1cc(C)c(NC(=O)C2CCN(c3nnc(C)c4c(C)n(-c5ccccc5)nc34)CC2)c(C)c1`, the Potency is reported as inconclusive: 3.98 µM [inhibitor, full curve, poor fit].
With `COc1ccc(C(=O)c2oc3ccc(OC)cc3c2N)cc1` the Potency was “inactive”.
With `CCN(CC#CCC(O)(c1ccccc1)C1CCCC1)C(C)C` (stereo not drawn) the Potency was “inactive”.
For `CCc1ccccc1S(=O)(=O)Cc1ccc(C(=O)N2CCN(c3ccccn3)CC2)o1`, the Potency was “inactive”.
In the case of `COc1ccc(C(=O)C[n+]2cc(Br)cc3ccccc32)cc1`, the Potency is reported as inconclusive: 15.8 µM [inhibitor, single point].
With `Cc1ccc(SC/C(O)=C(\C#N)c2nc3ccccc3s2)cc1` the Potency was active: 25.1 µM.
In the case of `CC(=O)Oc1c(/C=C(\C#N)C(N)=O)[nH]c2ccccc12`, the Potency is reported as inconclusive: 22.4 µM [inhibitor, single point].
With `CCC(=O)N/N=C/c1ccc(-c2ccc(Cl)cc2)o1` the Potency was “inactive”.
In the case of `C#CCN(C[C@H]1[C@H](OC(=O)NCCCCCC)[C@H](OC(=O)NCCCCCC)C[C@@H](C(=O)OC)[C@H]1C(=O)OC)S(=O)(=O)c1ccc(C)cc1`, the Potency is reported as inconclusive: 2.24 µM [inhibitor, partial curve].
For `COc1cccc(C(=O)/C=C2\Sc3ccccc3N2C)c1`, the Potency was inconclusive: 11.2 µM [inhibitor, partial curve, poor fit].
For `O=C(N/N=C/c1ccco1)c1ccccc1OCc1ccc(Br)cc1`, the Potency was “inactive”.
With `CCOc1ccc2nc(N(CCN(CC)CC)C(=O)c3ccc([N+](=O)[O-])cc3)sc2c1` the Potency was “inactive”.
For `Cn1c(CN2CCN(C(=O)c3ccccc3)CC2)nc2cc([N+](=O)[O-])ccc21`, the Potency was inconclusive: 6.31 µM [inhibitor, single point].
For `CCC(=O)NC(=S)Nc1ccccc1C(=O)OC`, the Potency was “inactive”.
With `Cc1nc2ccc([N+](=O)[O-])cc2c(=O)n1Cc1ccc(Cl)cc1` the Potency was “inactive”.
For `COc1ccc(Br)cc1C1Sc2ccccc2NC2=C1C(=O)c1ccccc12` (stereo not drawn), the Potency was “inactive”.
In the case of `CS(=O)(=O)N(CC(=O)N1CCC(C(N)=O)CC1)c1ccc(Oc2ccccc2)cc1`, the Potency is reported as inconclusive: 35.5 µM [inhibitor, single point].
For `CN(CC(=O)NCc1cccnc1)S(=O)(=O)c1ccc(F)cc1`, the Potency was “inactive”.
With `COc1cccc(-c2cc(C(=O)Nc3ccc(N(C)C(C)=O)cc3)c3cc(Br)ccc3n2)c1` the Potency was “inactive”.
With `COc1ccc(OC)c(NC(=O)CSc2nc3ccccc3nc2N2CCCCC2)c1` the Potency was inconclusive: 3.16 µM [inhibitor, full curve].
In the case of `CC(C)(C)n1nnnc1C(c1ccccc1OC(F)(F)F)N1CCN(C/C=C/c2ccccc2)CC1` (stereo not drawn), the Potency is reported as inconclusive: 15.8 µM [inhibitor, single point].
For `COc1ccc(NC(=O)COc2ccc(S(=O)(=O)NC3CCCCC3)cc2)cc1OC`, the Potency was inconclusive: 7.08 µM [inhibitor, partial curve, poor fit].
With `O=C(Nc1ccccc1)c1ccc(Br)c(S(=O)(=O)N2CCCCC2)c1` the Potency was active: 6.31 µM.
With `COc1ccc(NC(=S)N(Cc2ccccn2)Cc2ccccc2Cl)cc1` the Potency was inconclusive: 12.6 µM [inhibitor, partial curve, poor fit].
With `COc1cc(OC)cc(C(=O)NCCC(c2ccccc2)c2ccccc2)c1` the Potency was “inactive”.
In the case of `Cc1cc(O)c2c(c1O)C(=O)[C@]13C(=C2O)C(=O)[C@@H]2[C@@H](O)[C@H]1[C@@H]1[C@H](O)[C@H]3C(=O)C3=C(O)c4c(O)cc(C)c(O)c4C(=O)[C@]312`, the Potency is reported as inconclusive: 3.55 µM [inhibitor, full curve].
With `COc1ccc(NC(=O)C2CCC(CNS(=O)(=O)c3ccc(Br)s3)CC2)cc1OC` (stereo not drawn) the Potency was inconclusive: 35.5 µM [inhibitor, partial curve, poor fit].
For `CCCCOc1cccc(NC(=O)CSc2nnc(C)s2)c1`, the Potency was “inactive”.
In the case of `Cc1ccc(-c2c(C)sc3nc[nH]c(=O)c23)cc1C`, the Potency is reported as inconclusive: 10 µM [inhibitor, partial curve].
In the case of `O=C(CN1C(=O)C2CCCCC2C1=O)Nc1cccc([N+](=O)[O-])c1` (stereo not drawn), the Potency is reported as “inactive”.
For `O=S(=O)(c1ccccc1)c1nc(Cc2ccccc2)oc1N1CCOCC1`, the Potency was inconclusive: 3.16 µM [inhibitor, single point].
For `CCOc1ncccc1C(=O)N1CCN(Cc2ccc3c(c2)OCO3)CC1`, the Potency was inconclusive: 0.891 µM [inhibitor, full curve, poor fit].
With `CCCN(CCC)Cc1cc(=O)oc2ccc3ccccc3c12` the Potency was inconclusive: 25.1 µM [inhibitor, single point].
With `COc1ccccc1NC(=O)C(Cc1ccccc1)NS(=O)(=O)c1ccc2c(c1)c(=O)n(C)c(=O)n2C` (stereo not drawn) the Potency was inconclusive: 20 µM [inhibitor, single point].
For `CCOc1ccc(-n2c(=O)c3c4c(sc3n(CC(=O)Nc3cccc(C(F)(F)F)c3)c2=O)CCCCC4)cc1`, the Potency was “inactive”.
With `COc1ccc(OC)c(NC2=NC3(CCCCC3)N=C(N)N2)c1` the Potency was “inactive”.
For `COc1ccc(C(=O)C2CCCN(Cc3cn(C)nc3-c3ccccc3)C2)cc1F` (stereo not drawn), the Potency was inconclusive: 8.91 µM [inhibitor, partial curve, poor fit].
For `Cc1ccc(C2=NN3C(C(=O)c4ccccc4)Oc4ccccc4C3C2)cc1` (stereo not drawn), the Potency was “inactive”.
With `COc1ccc(/C=N/NC(=O)c2ccccc2OCc2ccccc2)c(OC)c1` the Potency was inconclusive: 14.1 µM [inhibitor, partial curve, poor fit].
With `Cc1cccc(CSc2nc3c(c(=O)[nH]2)C(c2cccc(O)c2)CC(=O)N3)c1` (stereo not drawn) the Potency was inconclusive: 35.5 µM [inhibitor, single point].
With `COc1ccc(C2=C(C)C(=O)N(Cc3ccc(C(=O)NCc4ccc(C)cc4)cc3)S2(=O)=O)cc1` the Potency was inconclusive: 7.08 µM [inhibitor, full curve].
For `Cc1cccc(CN2CCN(CC(=O)NCc3ccc(Cl)cc3)C2=O)c1`, the Potency was inconclusive: 8.91 µM [inhibitor, partial curve, poor fit].
With `O=C(Nc1ccc(OC(F)F)c(Cl)c1)Nc1ccc2c(c1)OCO2` the Potency was inconclusive: 11.2 µM [inhibitor, partial curve, poor fit].
For `CSc1ccc2c(c1)C(N1CCN(C)CC1)Cc1ccccc1S2` (stereo not drawn), the Potency was inconclusive: 35.5 µM [inhibitor, single point].
For `Cc1ccc(Nc2cc(C)nc3ccc(C)cc23)cc1`, the Potency was inconclusive: 14.1 µM [inhibitor, single point].
In the case of `Cn1c(=O)c2c(SCC(=O)N3CCCc4ccccc43)nc(CC(C)(C)C)nc2n(C)c1=O`, the Potency is reported as “inactive”.
For `Cc1ccc(S(=O)(=O)N2[C@@H](c3ccc(C(C)(C)C)cc3)C(C(=O)O)=CC[C@H]2c2cccc(Cl)c2)cc1`, the Potency was inconclusive: 25.1 µM [inhibitor, single point].
In the case of `COC(=O)c1ccccc1NC(=O)COc1ccccc1C(=O)Nc1ccccc1`, the Potency is reported as inconclusive: 10 µM [inhibitor, partial curve].
With `COc1ccc(Cc2nnc(NC(=O)CSc3ccc(C)cc3)s2)cc1OC` the Potency was “inactive”.
In the case of `Fc1cccc(Cc2noc(CN3CCOCC3)n2)c1`, the Potency is reported as inconclusive: 15.8 µM [inhibitor, single point].
For `COc1ccc(NS(=O)(=O)c2ccc(Oc3cccc(C(=O)O)c3)cc2)cc1`, the Potency was inconclusive: 6.31 µM [inhibitor, single point].
In the case of `Cc1c(C(=O)OC2CCCC2)[nH]c2c1C(=O)CC(c1ccco1)C2` (stereo not drawn), the Potency is reported as inconclusive: 5.62 µM [inhibitor, partial curve, poor fit].
With `C#CCOCCOCCOCCNc1nc(N2CCN(C(=O)Cn3cc(CCO)nn3)CC2)nc(N2CCN(C(=O)[C@H](Cc3ccc(O)cc3)n3cc(CCO)nn3)CC2)n1` the Potency was inconclusive: 35.5 µM [inhibitor, single point].
In the case of `CCOC(=O)C1(Cc2ccccc2)CCCN(C2CCCC2)C1` (stereo not drawn), the Potency is reported as “inactive”.
With `COc1ccc(CNC(=O)CN(c2cc(C)cc(C)c2)S(=O)(=O)c2c(C)[nH]c(=O)[nH]c2=O)cc1` the Potency was “inactive”.
